Publication PMC12040169 (PLOS Biology, 2025)
The list shows a part of the results.

The compounds below were run on T1, C. trachomatis L2/434/Bu expressing GFP (CTL2-GFP). Details: total inclusion area; 28.5 h, 10 µM; inhibitor.
T1 construct: L2/434/Bu GFP intracellular growth in HeLa cells
Parameters: species or system HeLa; C. trachomatis total inclusion area by high-content imaging, normalised to DMSO
Outline: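 Host cell viability was gauged from Hoechst-stained nuclei counts, while chlamydial growth was taken from total inclusion area and inclusion number per well. Cells were fixed and imaged by high-content microscopy once bulk GFP and resorufin fluorescence had been measured.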

Compound | % of control remaining
CCOC(=O)c1[nH]c2ccccc2c1NC(=O)CS(=O)(=O)c1ccc(C)cc1 [CBK160162] | 109.939
COc1ncc(-c2cnc3[nH]c(=O)n([C@H](C)c4ccccc4)c3n2)cn1 [CBK064401] | 69.4294
CN1CCC(N2CCN(C(=O)c3ccc4nc[nH]c4c3)CC2)CC1 [CBK149099] | 96.322
CCOC(=O)Cc1csc(SC(C)C(=O)N2CCCc3ccccc32)n1 (stereo not drawn) [CBK304228] | 53.7714
Oc1ccc2[nH]cc(CCNC(c3ccccc3)(c3ccccc3)c3ccccc3)c2c1 [CBK260891] | 72.0783
COc1ccc(Nc2ncc(C(=O)NCCCN3CCCC3)c3ccccc23)cc1 [CBK291114] | 81.3278
COc1ccc(C(=O)/C=C/Nc2ccc(S(=O)(=O)NC(=N)N)cc2)cc1 [CBK262277] | 50.7073
Cc1onc(-c2ccccc2)c1C(=O)Nc1ccc(N2CCNCC2)c2ccccc12 [CBK038942T] | 88.5918
Cn1cc(CCCC(=O)NC2CCCOC2)c2ccccc21 (stereo not drawn) [CBK282486] | 131.864
CCN(CC)C(=O)NC(c1ccccc1OC)c1nccn1C (stereo not drawn) [CBK283803] | 82.886
Cc1nn(Cc2ccccc2)c(C)c1CC(=O)NCCn1ccnc1 [CBK282095] | 103.543
CN(C)CCN(C)c1cc(-c2cccc(-c3ccccc3)c2)ncn1 [CBK037763] | 44.6997
CCn1cc(CN2CCCC(c3cc4cccnc4[nH]3)C2)c(C)n1 (stereo not drawn) [CBK284701] | 82.0561
CSCCCNC(=O)N1CCCCC1CO (stereo not drawn) [CBK156163] | 96.6087
COc1ccc(Nc2nc(-c3ccccc3)c(C)s2)c(OC)c1 [CBK131709] | 109.185
COc1ccc(N(CCN2CCCCC2)S(=O)(=O)c2ccc(C)cc2)cc1 [CBK261131] | 105.124
Cn1c(=O)n(C)c2cc(NC3=NS(=O)(=O)c4ccccc43)ccc21 [CBK270210] | 75.7471
Cc1nc(SCCn2cccn2)c2c(=O)n(C)c(=O)n(CC(C)C)c2n1 [CBK306321] | 94.0677
CCc1cc2c(=O)c(-c3cnn(-c4ccccc4)c3)c(C(F)(F)F)oc2c(CN(C)C)c1O [CBK264530] | 113.898
O=C(O)CCC(=O)NNC(=O)c1ccccc1[N+](=O)[O-] [CBK261079] | 93.9542
O=C(c1cc(S(=O)(=O)N2CCOCC2)ccc1Cl)N1CCCCC1CO (stereo not drawn) [CBK304579] | 41.6527
CCN(CC)CCCNC(=O)N1CCCC(CO)C1 (stereo not drawn) [CBK156061] | 83.3022
Cc1cc(C(=O)NC(Cc2c[nH]c3ccccc23)C(=O)O)c(C)o1 (stereo not drawn) [CBK286560] | 103.488
O=C(O)c1cccc(NCN2C(=O)c3ccc([N+](=O)[O-])cc3C2=O)c1 [CBK261100] | 85.7747
O=C(C(OCC(F)(F)F)c1ccccc1)N1CCN(c2nccs2)CC1 (stereo not drawn) [CBK298299] | 58.711
CCc1ccc(/C=C2/SC(=S)N(CCC(=O)O)C2=O)cc1 [CBK263390] | 102.074

Compound | % of control remaining
CN(C)Cc1cnn(-c2ccc(Oc3ccccc3)cc2)n1 [CBK112865] | 93.182
O=S1(=O)Cc2ccccc2C(Oc2cncc(N3CCNCC3)n2)C1 (stereo not drawn) [CBK172344T] | 98.436
COC(=O)c1sccc1OCc1nnc(-c2ccc(Cl)c(Cl)c2)o1 [CBK067742] | 82.1558
Cc1sc2ncn(CC(=O)NCCCN3CCCCC3)c(=O)c2c1C [CBK305831] | 96.3706
COc1ccccc1CCCNC(=O)CC1CCCCN1C (stereo not drawn) [CBK282694] | 93.8882
C[C@@H]1CN(C(=O)OCCc2ccsc2)C[C@H](C)O1 [CBK200417] | 81.7013
CC(C)NC(=S)N1CC[C@@]2(NC(N)=O)N=C(N)O[C@H]2C1 [CBK010049] | 80.283
Cc1cc(C)n(CC2CN(C(C)C(=O)NCc3ccco3)CCO2)n1 (stereo not drawn) [CBK305351] | 54.089
O=C(COc1ccc(Br)cc1)Nc1ccc(CN2CCCCC2)cc1 [CBK266181] | 103.836
COc1ccc(C2NCCc3c2[nH]c2ccccc32)cc1CN1CCN(c2ccc(F)cc2)CC1 (stereo not drawn) [CBK264178C] | 68.4347
CN1CCN(NC(=O)CSc2ccccc2)CC1 [CBK268142] | 93.1966
CC1SC(c2cc3ccccc3o2)N(c2ccc(F)cc2F)C1=O (stereo not drawn) [CBK006917] | 106.813
Cc1ccc(Cl)cc1NC(=O)c1cc(NC(=O)C2CCCCC2C(=O)O)ccc1N1CCCCC1 (stereo not drawn) [CBK268371] | 81.8451
COc1ccc(C(=O)N2CCC3(CCCN(C(=O)c4c(F)cccc4F)C3)C2)cc1OC (stereo not drawn) [CBK131669] | 77.6376
O=C(Nc1nnc(-c2ccncc2)o1)c1ccc(F)cc1 [CBK287431] | 91.1806
COc1cc(Nc2cncc(-c3ccc(O)cc3)n2)c(Cl)cc1C(=O)NCC(F)(F)F [CBK126470] | 74.8924
Cn1nc(-c2ccc(S(=O)(=O)Nc3nnc(C(F)(F)F)s3)s2)cc1C(F)(F)F [CBK062017] | 84.2271
O=C(NC1CCCC1)c1ccc2c(c1)OCO2 [CBK002177] | 100.95
COc1ccc(C(C)C)cc1-c1nccnc1NCCc1c[nH]c2ccccc12 [CBK036650] | 100.767
CC(C)c1csc(CNC(=O)NC2CCCN(c3ccn(C)n3)C2=O)n1 (stereo not drawn) [CBK304447] | 42.44
O=C(C1=C(O)C(=O)N(CCCn2ccnc2)C1c1cccc([N+](=O)[O-])c1)c1ccc(F)cc1 (stereo not drawn) [CBK264571] | 129.008
O=C(CCC1CCCC1)n1ccn(-c2ccc3c(c2)OCO3)c1=O [CBK106631] | 95.7718
Cc1[nH]c(=O)c(S(=O)(=O)c2ccccc2)c(C)c1Cl [CBK018736] | 78.4366
CC(=O)Nc1ccc(S(=O)(=O)N2CC[C@H](c3nc4ccccc4o3)C2)cc1 [CBK289373] | 74.4145
C=CCN1C(=O)CC2(C1=O)C(=O)N(Cc1nc(-c3ccc(Cl)cc3)no1)c1ccc(OC)cc12 (stereo not drawn) [CBK075692] | 89.415
